Measurements as given in article PMC6919601, “Identification of Plasmodium dipeptidyl aminopeptidase allosteric inhibitors by high throughput screening” (PLoS ONE, 2019).
About 230 (0.21%) of roughly 110,000 compounds showed an effect of 50% or more. The list shows a part of the results.

Target: DPAP1 (Plasmodium falciparum, UniProt Q8IIJ9)
Test: primary screen, percent inhibition; read by cleavage of a fluorogenic dipeptide substrate; higher = more effect of the substance
Design: species or system P. falciparum D10 trophozoite lysates; single well
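Note: 30 min substrate incubation versus DMSO and 10 µM JCP410 controls.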

Chain of DPAP1 (Q8IIJ9 whole entry, looked up): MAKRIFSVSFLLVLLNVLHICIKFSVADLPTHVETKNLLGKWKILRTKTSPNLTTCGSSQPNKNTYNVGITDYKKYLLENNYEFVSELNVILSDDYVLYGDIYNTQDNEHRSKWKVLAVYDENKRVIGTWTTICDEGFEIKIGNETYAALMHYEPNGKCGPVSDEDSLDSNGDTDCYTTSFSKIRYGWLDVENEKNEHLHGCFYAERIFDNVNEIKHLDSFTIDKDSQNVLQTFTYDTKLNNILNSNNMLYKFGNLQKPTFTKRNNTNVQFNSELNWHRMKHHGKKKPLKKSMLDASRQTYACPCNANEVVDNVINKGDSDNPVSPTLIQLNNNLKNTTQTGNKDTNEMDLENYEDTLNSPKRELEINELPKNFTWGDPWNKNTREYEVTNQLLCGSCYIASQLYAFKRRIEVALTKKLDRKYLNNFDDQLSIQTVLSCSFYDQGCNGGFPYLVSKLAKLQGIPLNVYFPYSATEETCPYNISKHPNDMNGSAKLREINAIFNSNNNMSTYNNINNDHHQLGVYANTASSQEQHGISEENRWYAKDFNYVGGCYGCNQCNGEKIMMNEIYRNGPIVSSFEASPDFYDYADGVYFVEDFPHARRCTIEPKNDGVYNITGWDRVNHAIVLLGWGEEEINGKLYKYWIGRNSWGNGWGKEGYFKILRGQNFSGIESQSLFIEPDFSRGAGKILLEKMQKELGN

| SMILES | % Inhibition @ 10 uM |
| --- | --- |
| COCCNC(=S)NCCc1c(C)[nH]c2ccc(Cl)cc12 | -2.16% |
| Cc1cc2nc(O)c(O)nc2cc1S(=O)(=O)N1CCOCC1 | 5.4% |
| CCN(CC)C(=O)C1CCCN(Cc2cccc(Br)c2)C1 (centres unmarked) | -4.5% |
| Cc1ccc(S(=O)(=O)Nc2cnc3ccccc3c2)cc1 | 1.42% |
| Cc1nn(-c2ccccc2)c2c1N(CC(=O)N1CCC(Cc3ccccc3)CC1)C(=O)CS2 | -0.656% |
| CCOc1ccc(NC2=C(Cl)C(=O)N(c3ccccc3)C2=O)cc1 | 3.19% |
| Cc1cc(CSC(=N)N)cs1 | 2.57% |
| COc1ccc(S(=O)(=O)Nc2cccc3cccnc23)cc1 | -4.52% |
| O=C(O)CC1(CC(=O)Nc2ccc(C(F)(F)F)cc2)CCCC1 | -4.14% |
| CSc1ccc(S(=O)(=O)N(CC(=O)N2CCCCCC2)c2ccc(C)cc2)cc1 | -1.64% |
| CCc1ccc(CNC(=O)Cn2nc(-c3ccccc3)ccc2=O)cc1 | 0.514% |
| COc1ccc(OC)c(-n2cnc3cc(C(=O)NCCC4=CCCCC4)ccc32)c1 | 1.2% |
| O=C(Cn1nc(C(F)(F)F)cc1C1CC1)Nc1ccc(Cl)cc1F | -5.6% |
| CCOc1ccccc1C1NC(=S)NC(c2ccccc2OCC)C12C(=O)NC(=O)NC2=O (centres unmarked) | -2.01% |
| CN1C(=O)[C@@H]2[C@H](C1=O)[C@H](C(=O)c1ccccc1)N1c3ccccc3C=C[C@@H]21 | 2.95% |
| CCN(CC)C(=O)/C(=C/c1ccc(OC)cc1)NC(=O)c1ccc(OC)cc1 | -2.87% |
| COC(=O)C1=CN(CCCN2CCCC2=O)C=C(C(=O)OC)C1c1ccccc1C(F)(F)F | -0.386% |
| COCCNC(=O)C1CCN(c2nnc(C)c3c(C)n(-c4ccc(C)cc4)nc23)CC1 | -2.14% |
| O=S(=O)(c1ccc(Br)cc1Br)N1CCOCC1 | -7.88% |
| Oc1ccc(OC(c2ccccc2)C(O)c2ccccc2)cc1 (centres unmarked) | 1.92% |
| Cc1cc(C(=O)O)c(CCCN)s1 | 1.42% |
| CC1=C(C(=O)OCCc2ccccc2)C(c2cccc(Cl)c2Cl)NC(=O)N1 (centres unmarked) | -6.08% |
| CC(CCN1CCN(C)CC1)c1ccccc1 (centres unmarked) | -3.57% |
| COc1cc(C)c(CN2CCN(Cc3ccccc3)CC2)cc1C | 3.16% |
| O=S(=O)(c1cccc2cccnc12)N1CCN(Cc2ccc3c(c2)OCO3)CC1 | 2.01% |

| SMILES | % Inhibition @ 10 uM |
| --- | --- |
| Cc1ccc(/C=C2/SC(=O)N(CN3CCOCC3)C2=O)cc1 | -3.37% |
| CC(C)=CCCC(C)CN1CCCC(C(N)=O)C1 (centres unmarked) | 4.9% |
| O=S(=O)(c1ccc(-c2csc(Nc3cc(Cl)cc(Cl)c3)n2)cc1)N1CCCC1 | -0.233% |
| C=CCN1C(=O)C2(NC(CC(C)C)C3C(=O)N(c4ccccc4)C(=O)C32)c2ccccc21 (centres unmarked) | 2.27% |
| Cc1ccccc1NC(=O)/C=C/c1ccccc1 | -1.69% |
| Cc1ccccc1-c1nc(CN2CCC(C(=O)NCCCN3CC(C)CC(C)C3)CC2)c(C)o1 (centres unmarked) | -4.71% |
| CN(Cc1ccccc1)C(=O)C1CC(c2ccc(F)cc2)=NO1 (centres unmarked) | -2.16% |
| CCOC(=O)c1c(O)cc2ccccc2c1O | -1.97% |
| O=C(NCc1ccc2c(c1)OCO2)c1cc(=O)c2cc(Cl)ccc2o1 | -3.24% |
| Cc1scc(CN2CCCCCC2)c1C | 1.77% |
| Cc1nc2ccccc2n1CCc1nc2c3ccccc3nc(NCc3cccnc3)n2n1 | 9.96% |
| CCCCNC(=O)c1cc(-c2ccc(F)cc2)on1 | 4.5% |
| CCC1CCCCN1C(=O)c1cc2cc3cc(OC)ccc3nc2s1 (centres unmarked) | 0.128% |
| Cc1ccc(-c2nc(CS(=O)(=O)CC(=O)NC3CC3)c(C)o2)cc1 | -3.7% |
| COc1ccc(C2OC(=O)C(C)(C)C(=O)C2(C)C)cc1 (centres unmarked) | -1.24% |
| CC(C)(C)c1[nH]nc2c1C(c1c[nH]nc1-c1ccc(F)cc1)C(C#N)=C(N)O2 (centres unmarked) | 4.32% |
| O=C(NCCc1ccccc1)C(=O)Nc1ccc(F)cc1 | 1.13% |
| CCOc1ccccc1-c1nc(-c2ccc(C(F)(F)F)cc2)no1 | 1% |
| SC(COCc1ccccc1)CN1CCN(Cc2ccccc2)CC1 (centres unmarked) | -6.02% |
| NS(=O)(=O)c1ccc(CCNc2ccc3nnc(-c4ccccc4)n3n2)cc1 | 6.41% |
| CCOc1ccc(NC(=O)c2ccccc2C)cc1 | 1.83% |
| Cc1nnc(NC(=O)CSc2nnc(CNC(=O)c3ccco3)n2-c2cccc(C)c2C)s1 | 3.75% |
| CC(CCc1ccccc1)NC(=O)Cn1c2c(c(-c3ccccc3Cl)cc1=O)CCC2 (centres unmarked) | -0.971% |
| C=CCn1c(C(C)NC(=O)c2cc(OC)c(OC)c(OC)c2)nc2ccccc21 (centres unmarked) | 0.813% |
| CC(C)C(=O)Nc1c(C(=O)N2CCN(c3ncccn3)CC2)oc2ccccc12 | -1.61% |
